Assay results as given in PMC4721543, “Direct binding of hepatocyte growth factor and vascular endothelial growth factor to CD44v6” (Bioscience Reports, 2015).

Molecular target: T1, human VEGF-A165 (human, biotin in the cellular ELISA; NT-647 (NHS) in MST and in one FCS series; ATTO 647N (NHS ester) in FCS; unlabelled in FACS and pull-down)
T1 construct: also called VEGF165; VEGF165-NT647; source: bought: Peprotech
Experiment: fluorescence correlation spectroscopy; 1-5 nM ATTO 647N-labelled growth factor with 0.1 nM to 20 μM unlabelled CD44 ectodomain; at least 3 h at room temperature; PBS with 0.05% Tween-20; 20°C; diffusion times fitted with a 1:1 binding model
Conditions: both partners purified

Kd: 1.3 ± 0.6 µM
B1: human CD44s ectodomain, hexahistidine-tagged (domain or fragment)
chain: [about 200 residues not spelt out]ATRDQDTFHPSGGSHTTHGSESDGHSHGSQEGGANTTSGPIRTPQIPE
